Values joined by “and” are separate entries in the source; they are usually repeats but may differ in a detail not shown here. Identical values can stand only once. The whole screen tested about 110,000 compounds, of which about 230 (0.21%) showed an effect of 50% or more. Some of the results follow.
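Note: 30 min substrate incubation versus DMSO and 10 µM JCP410 controls.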

Chain of DPAP1 (Q8IIJ9 whole entry, looked up): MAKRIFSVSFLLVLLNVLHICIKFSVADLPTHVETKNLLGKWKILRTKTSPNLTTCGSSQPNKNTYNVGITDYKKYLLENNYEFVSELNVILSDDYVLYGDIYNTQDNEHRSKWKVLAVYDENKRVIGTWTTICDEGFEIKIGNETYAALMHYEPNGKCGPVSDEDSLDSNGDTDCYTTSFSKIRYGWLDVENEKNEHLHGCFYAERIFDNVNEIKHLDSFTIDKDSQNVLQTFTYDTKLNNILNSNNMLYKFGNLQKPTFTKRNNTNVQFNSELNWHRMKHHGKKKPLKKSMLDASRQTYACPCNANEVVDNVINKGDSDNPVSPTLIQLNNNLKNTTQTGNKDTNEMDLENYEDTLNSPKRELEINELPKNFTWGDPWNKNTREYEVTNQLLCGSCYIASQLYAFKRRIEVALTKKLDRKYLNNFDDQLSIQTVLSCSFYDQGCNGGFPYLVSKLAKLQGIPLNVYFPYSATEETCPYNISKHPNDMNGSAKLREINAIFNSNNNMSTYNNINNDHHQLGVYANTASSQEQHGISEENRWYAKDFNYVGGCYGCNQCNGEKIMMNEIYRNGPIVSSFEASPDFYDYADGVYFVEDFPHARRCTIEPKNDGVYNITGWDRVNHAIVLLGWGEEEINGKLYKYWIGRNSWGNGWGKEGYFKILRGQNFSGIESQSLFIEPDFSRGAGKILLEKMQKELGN

The assay concerns the target DPAP1 (Plasmodium falciparum, UniProt Q8IIJ9). As to the kind of experiment: primary screen, percent inhibition; read by cleavage of a fluorogenic dipeptide substrate; higher = more effect of the substance. On the set-up: species or system P. falciparum D10 trophozoite lysates; single well.
On to `Cc1ccccc1Cn1ccc(NC(=O)c2onc(C)c2Cl)n1`, for which the “% Inhibition @ 10 uM” value is reported as -1.7%.
In the case of `O=C(NCc1ccc2c(c1)OCO2)c1ccc2nc3[nH]c4ccccc4c3nc2c1` it was -7.73%; in that of `O=S1(=O)C=C(N2CCOCC2)CC1`, 2.56%; in that of `Cn1c(-c2ccccc2)nc2c(c1=O)C1(CCCCC1)Cc1ccccc1-2`, 2.51%.
Turning to `CC(C)Cc1ccc(C(C)C(N)=O)cc1` (stereo not shown), the “% Inhibition @ 10 uM” value stood at 3.34%.
In the case of `Cc1cccc2c1cnn2C(=O)CCC(=O)NCC(C)c1ccccc1` (stereo not shown) it was 1.68%; in that of `CCOCCCNC(=O)Cn1ncn2c(cc3sc(CC)cc32)c1=O`, 4.84%.
In the case of `CCn1c(S)nnc1-c1ccccc1Br` it was 6.11%; in that of `CCn1c(C(=O)OC)cc2sc(Cl)cc21`, -11%.
In the case of `O=S(=O)(Cc1ccccc1)Nc1ccc(F)cc1F` it was -0.13%; in that of `CC(C)C[C@H](NS(=O)(=O)c1ccc(C(F)(F)F)cc1)C(=O)NCC#N`, -1.41%.
For `CCn1cc(/C=C2/SC(=O)N(CC(=O)N3CCN(c4ccccc4)CC3)C2=O)c2ccccc21`, the “% Inhibition @ 10 uM” value is on record as -1.63%.
In the case of `CN(C)Cc1c(O)ccc2occ(C(O)c3ccccc3)c12` (stereo not shown) it was 5.48%.
Regarding `Cc1ccc(CN2CCc3nc(O)nc(O)c3C2)cc1`, the “% Inhibition @ 10 uM” value is recorded as -1.8%.
In the case of `COc1ccc(C2CC(C(F)(F)F)n3nc(C(=O)NCc4c(C)nn(C)c4C)c(Cl)c3N2)cc1` (stereo not shown) it was -2.8%; in that of `O=C1/C(=C\c2cccnc2)S/C(=N/c2ccccc2)N1Cc1ccccc1`, 0.214%.
In the case of `CC(C)(C)NC(=O)c1oc2ccccc2c1NC(=O)c1ccco1` it was 6.68%; in that of `COc1ccc(C2=NN(CC(=O)NCCCSC3CCCCC3)C(=O)CC2)cc1`, 3.24%.
`COc1ccc(CCNC(=O)Cn2c(=O)c3sccc3n(Cc3ccc(F)cc3)c2=O)cc1OC`: the “% Inhibition @ 10 uM” value is -9.28%.
In the case of `CC(C)SC1=NSC2=NC(=O)/C(=C\c3ccc(OS(C)(=O)=O)cc3)C(=N)N21` it was 6.91%; in that of `CCN1CCN(Cc2nc3c(c(=O)n(C)c(=O)n3C)n2Cc2c(F)cccc2Cl)CC1`, 1.23%; in that of `CCc1nc(C)cc(CN(C)C23CC4CC(CC(C4)C2)C3)c1O`, -0.0953%.
In the case of `C#CCNc1cc(C)nc2nncn12` it was -0.808%; in that of `CCC(C)NC(=O)CN(C)c1nnc(N2CCCC2=O)s1` (stereo not shown), -0.542%; in that of `Cc1nc(O)c(C(c2ccc(C(=O)O)cc2)c2c(O)nc(C)nc2O)c(O)n1`, -1.69%.
In the case of `O=[N+]([O-])c1ccc(S(=O)(=O)N2CCc3ccccc32)cc1`, the “% Inhibition @ 10 uM” value was 5.69%.
In the case of `O=C1CCCN1c1ccc(S(=O)(=O)Nc2ccccn2)cc1` it was -5.51%; in that of `CCN(CC)C(=O)c1sc2nc3c(cc2c1N)CCC3`, 2.17%.
In the case of `CN(C)CCCN(C(=O)c1ccc2ncsc2c1)c1nc2c(F)cccc2s1` it was 3.96%; in that of `CCOc1ccc(-c2cc(C3CC3)c(C#N)c(N)c2C#N)cc1`, 5.69%; in that of `O=C1N=C(N2CCOCC2)S/C1=C\c1ccc(N2CCOCC2)cc1`, -6.07%.
In the case of `CCCCN(CC)CCCNC(=O)C1CCN(c2nc3ccc(OC)cc3s2)CC1` it was 2.59%; in that of `O=C(Nc1ccc(Cl)c(Cl)c1)C(O)(c1ccccc1)c1ccccc1`, -4.21%.
Regarding `O=c1cc(CSc2ccccc2)nc2scc(-c3ccccc3)n12`, the “% Inhibition @ 10 uM” value was -7.65%.
On to `O=C(CC1CC2CCC1C2)NC(c1ccccc1)c1ccccc1` (stereo not shown), for which the “% Inhibition @ 10 uM” value came out at 0.238%.
On to `CC(C)CC(C(=O)NCC#N)c1cccc(-c2ccc(S(=O)(=O)NCc3ccccn3)cc2)c1` (stereo not shown), for which the “% Inhibition @ 10 uM” value is listed as -3.04%.
With `CC1SC(c2ccccc2)NC1=O` (stereo not shown), the “% Inhibition @ 10 uM” value is listed as -3.77%.
In the case of `Cc1cccc(OCCOCCN2CCN(C)CC2)c1C` it was -2.05%.
In the case of `CCSc1n[nH]c2nc3ccccc3n12` it was -2.21%.
As to `CC(=O)NC(Cc1ccccc1)C(=O)N[C@@H](CCc1ccccc1)C(=O)c1nc2ccccc2o1` (stereo partly shown), the “% Inhibition @ 10 uM” value is on record as -1.83%.
In the case of `C=C(C)CN(CC)Cc1ccc(Cl)c([N+](=O)[O-])c1` it was -4.14%.
As for `CCc1nonc1NC(=O)c1sc2cc(C)ccc2c1Cl`, the “% Inhibition @ 10 uM” value is reported as 0.00706%.
In the case of `CC(=O)Nc1ccc(N2C(=O)CC(N3CCCCC3C)C2=O)cc1` (stereo not shown) it was 2.55%; in that of `CSc1ccc(CN2CCOCC2)cc1`, -2.34%.
In the case of `CSCCOc1nc2c(c(=O)n(C)c(=O)n2C)n1Cc1ccccc1Cl` it was 9.02%; in that of `COc1ccc(/C=C2/C(=O)N(c3ccc(Br)cc3)N=C2c2ccccc2)c(OC)c1`, -0.999%.
Consider `COc1ccccc1/C=C1\SC(N2CCC(C)CC2)=NC1=O`, for which the “% Inhibition @ 10 uM” value is given as 16%.
In the case of `COc1ccc(C(=O)N2CCN(Cc3ccc(C(F)(F)F)cc3)CC2)cc1OC` it was -8.42%; in that of `CCOC(=O)NC(CC(=O)O)c1ccc(OC)c(OC)c1` (stereo not shown), -1.47%; in that of `COc1ccc(C2=NS(=O)(=O)N(C)C(C(=O)Nc3cccnc3)=C2)cc1OC`, 0.655%.
In the case of `CCOC(=O)c1nnn(CC(=O)N2N=C(c3ccccc3)CC2c2ccccc2)c1C(=O)OCC` (stereo not shown) it was 5.52%; in that of `COc1ccc(C2(CNC(=O)c3ccc(C)cc3)CCOCC2)cc1`, -2.24% and -1.61%; in that of `c1cncc(CN2CCN(Cc3c[nH]c4ccccc34)CC2)c1`, -11.4%.
As to `Cc1nn(Cc2ccccc2)c(C)c1NS(=O)(=O)c1ccccc1`, the “% Inhibition @ 10 uM” value is given as -4.78%.
In the case of `COc1cc(-c2nnc3sc(-c4ccc(C(C)(C)C)cc4)nn23)cc(OC)c1OC` it was 2.89%; in that of `O=C1c2ccc(F)cc2C(=O)N1Cc1ccccc1`, -0.687%; in that of `O=C(Cc1ccncc1Br)NCCc1c[nH]c2ccccc12`, 2.79%.
In the case of `O=C(O)c1cccc(COc2ccc3ccccc3c2)c1`, the “% Inhibition @ 10 uM” value was determined as 3.69%.
In the case of `COc1cc(C(=O)Nc2sc3c(c2C#N)CCC(C)C3)c(Br)c(OC)c1OC` (stereo not shown) it was 5.59%.
In the case of `CCOC(=O)c1c(C)n(C)c2ccc(OCC(O)CN3CCCCC3C)cc12` (stereo not shown) it was -8.95%; in that of `CO/C(O)=C1/C(C)=Nc2ncnn2C1c1ccc(OC)c(OC)c1` (stereo not shown), -0.339%; in that of `COc1ccc(CNC(=O)Cc2c(C)c3ccc(O)cc3oc2=O)cc1OC`, -4.39%.
For `CCOC(=O)c1sc2nc3c(cc2c1N)COC(C(C)C)C3` (stereo not shown), the “% Inhibition @ 10 uM” value came to 3.54%.
In the case of `CSc1nc(N(C)C)nc(N2CC(=O)N(CCNS(=O)(=O)c3ccc(C)cc3)C2=N)n1`, the “% Inhibition @ 10 uM” value is given as 2.3%.
In the case of `CC(=O)Nc1ccc(NC(=O)c2nn(C)cc2Br)cc1` it was -1.98%.
In the case of `COCCNC(=O)C(=O)NCC(c1cccnc1)N1CCOCC1` (stereo not shown) it was -1.72%; in that of `COc1cc(C2CC(=O)OC3=C2C(=O)c2ccccc2C3=O)ccc1OCc1ccccc1F` (stereo not shown), 7.51%.
Take `O=C(Nc1ccccc1)C1CC=CCC1C(=O)N(c1ccccc1)c1ccccc1` (stereo not shown): the “% Inhibition @ 10 uM” value was -3.66%.
In the case of `O=C(c1ccccc1)c1ccc(NC(=O)c2cccs2)cc1` it was 5.92%.
Regarding `CCCCSCCCNC(=O)CCCN1C(=O)c2ccccc2Sc2ncccc21`, the “% Inhibition @ 10 uM” value is -4.16%.
In the case of `CCOc1ccc(NC(=O)NC2CCCCC2)cc1` it was -3.94%; in that of `COc1ccc(CCNCc2c(C(=O)O)n(Cc3cccc(Cl)c3)c3ccccc23)cc1OC`, 5.09%; in that of `CSc1nc2nc(C(F)F)cc(-c3ccccc3)n2n1`, 9.3%.
In the case of `CCCCCCSc1nnc(NC(=O)c2ccc(C(=O)OCC)cc2)s1` it was 5.37%; in that of `CCOc1ccc2cc(C(=O)C3CCCCC3)ccc2c1`, 0.162%; in that of `CCC(C)NS(=O)(=O)c1cccs1` (stereo not shown), -5.52%.
In the case of `CCCSCCCNCc1c(C(=O)O)c(C)n(Cc2ccccc2)c1C` it was -5.49%.
As for `CN(C)/C=C1/N=C2C=C(c3ccccc3)c3cc(Cl)ccc3N2C1=O`, the “% Inhibition @ 10 uM” value was -2.29%.
In the case of `COC(=O)c1c(-n2cccc2)sc2c1CCCC2` it was -0.256%; in that of `O=C(Nc1nc2ccccc2s1)c1cccn(OCc2cccc(Cl)c2)c1=O`, 1.72%.
For the compound `CCOC(=O)C1=C(C)N=c2s/c(=C\c3c(F)cccc3Cl)c(=O)n2C1c1ccccc1` (stereo not shown), the “% Inhibition @ 10 uM” value came out at 1.84%.
In the case of `Cc1nc2ccc(NC(=O)N3CCOCC3)cc2s1` it was 1.25%.
In the case of `Cc1nc(N2C(=O)c3oc4ccccc4c(=O)c3C2c2ccco2)sc1C` (stereo not shown) it was -5.11%; in that of `CCOc1ccc(-c2cc(NC(=O)Cn3ncc4c5ccccc5nc-4c3O)on2)cc1`, 0.721%.
In the case of `Cc1cc2oc3c(c(=O)c2cc1C)C(c1ccc(O)cc1)N(c1ccccn1)C3=O` (stereo not shown) it was 6.82%; in that of `Cc1ccc(C(=O)N2CCc3ccccc32)cc1[N+](=O)[O-]`, -4.4%.
`CC1(C)CC2CC(C)(CN2C(=O)C2CC(c3ccccc3F)=NO2)C1` (stereo not shown): the “% Inhibition @ 10 uM” value is given as -5.79%.
In the case of `CCOc1cc(/C=C2/NC(=O)NC2=O)cc(Cl)c1OC(C)CC` (stereo not shown) it was 1.52%; in that of `CC(C)(C)c1ccc(-c2nnc3sc(-c4ccc5c(c4)OCCO5)nn23)cc1`, 4.96%; in that of `COC(=O)C1=C(C(C)=O)C(c2ccccc2OC)n2nnnc2N1` (stereo not shown), 0.565%.
In the case of `CCCCc1[nH]nc2c1C(c1c[nH]c3ccccc13)C(C#N)=C(N)O2` (stereo not shown) it was -4.61%.
In the case of `COc1ccc(Cn2c(SCc3ccc(C(=O)N4CCCC4)cc3)nc3cccnc32)cc1` it was 3.46%; in that of `CCc1sc(NC(=O)c2cc3ccccc3oc2=O)nc1-c1cccs1`, 2.44%.
`CCOc1ccc(Br)cc1/C=C/c1[nH]c(=O)[nH]c(=O)c1[N+](=O)[O-]`: the “% Inhibition @ 10 uM” value came to 0.98%.
In the case of `CC(=O)c1cccc(NC(=O)c2cc(NC(=O)c3ccccc3)cc(NC(=O)c3ccccc3)c2)c1` it was -0.693%; in that of `Cc1c(C(=O)O)c(C)n(C)c1-c1ccccc1`, -5.21%.
In the case of `COc1ccc(N(CC(=O)N2CCCCCC2)S(=O)(=O)c2ccccc2)cc1OC` it was 1.47%.
In the case of `COc1ccccc1-n1c(S)nnc1C12CC3CC(CC(C3)C1)C2` it was -0.0626%; in that of `O=C(O)C1CC=CCC1C(=O)Nc1ccc(Cc2ccncc2)cc1` (stereo not shown), -4.89%; in that of `COc1ccc(CC(=O)N2N=C(C)CC2(O)c2ccncc2)cc1` (stereo not shown), -1.36%.

The record behind these values is PMC6919601, “Identification of Plasmodium dipeptidyl aminopeptidase allosteric inhibitors by high throughput screening” (PLoS ONE, 2019).
